# Assay results: PubChem BioAssay AID463173 (ICCB-Longwood Screening Facility, Harvard Medical School, 2010)
# About 4,300 (8.3%) of roughly 52,000 compounds were called active. No stated cut-off is given here; in the data, active means survival mostly below about 52% (no sharp cut-off); inactive means mostly above about 56%. This is one part of the list.
# Tested on: DeltatarO mutant
# Experiment: growth inhibition of S. aureus wild type versus tarO mutant, primary screen, teichoic acid synthesis inhibitors, RN4220, OD600 (AID 463173)
# Settings: OD600, 18 h, hits give low values, screened at 18.75 µg/mL (by protocol)
row,SMILES,survival
1,CCc1ccc(NS(=O)(=O)c2ccc3oc(=O)c4ncn(CC)c4c3c2)cc1,inactive: 94%
2,CCOC(=O)C1CCC(CN(Cc2ccc(OC)cc2)S(=O)(=O)c2ccc(F)c(C(=O)Nc3ccc(C)c(C)c3)c2)CC1 (configuration not stated),inactive: 77%
3,COc1ccc(-n2c(Cc3ccccc3)nnc2SCc2nc(-c3cccs3)no2)cc1,inactive: 65%
4,O=C(CCCc1ccccc1)N1CCN(c2ccccn2)CC1,inactive: 91%
5,O=c1cc(CSc2ncn[nH]2)[nH]c2ccc(F)cc12,inactive: 78%
6,CCc1nc2ccccc2n1CCO,inactive: 77%
7,CC(=O)Nc1ccccc1OC(=O)N1CCOCC1,inactive: 66%
8,COc1cccc(C2c3c(oc4cc(C)cc(C)c4c3=O)C(=O)N2CCc2ccc(OC)c(OC)c2)c1 (configuration not stated),inactive: 60%
9,COc1ccc(NC(=O)CCS(=O)(=O)c2nc(-c3cccs3)cc(C(F)(F)F)n2)cc1,inactive: 81%
10,CCCc1cc(=O)n2c(C(=O)Nc3ccc(OCC)cc3)c(C(=O)Nc3ccc(C)cc3)sc2n1,inactive: 55%
11,COc1ccccc1CNC(=O)CCC1N=C2c3ccccc3N=C(SCC(=O)Nc3ccc(F)cc3)N2C1=O (configuration not stated),inactive: 84%
12,Cc1ccc2c(c1)c1c(c(=O)n(-c3cccc(Cl)c3)c(=O)n1CC(=O)NCCC1=CCCCC1)n2C,inactive: 72%
13,CCn1c(SCc2ccccc2C)nc(=O)c2c(C(=O)OC)cc(C3CC3)nc21,inactive: 71%
14,CC(C(=O)O)N1c2cccc3cccc(c23)S1(=O)=O (configuration not stated),inactive: 98%
15,COc1ccc(CNc2nc(-c3ccccc3)nn2S(=O)(=O)c2ccccc2)cc1,inactive: 50%
16,CN(CC(=O)NCc1ccc(Cl)cc1)S(=O)(=O)c1ccc2[nH]c3c(c2c1)CCCC3,inactive: 97%
17,CCn1cnc2sc(C(=O)Nc3ccccc3)c(C)c2c1=O,inactive: 87%
18,CC(=O)Nc1cc(-c2nc3cc(Cl)ccc3o2)ccc1C,inactive: 51%
19,Cc1ccc(Cl)cc1Nc1nn2c(=O)c3ccc(C(=O)Nc4ccc(F)cc4)cc3nc2s1,inactive: 97%

row,SMILES,survival
1,Cc1ccc(NC(=O)CSCC(=O)O)cc1,inactive: 96%
2,Cc1cc(Cl)ccc1NC(=O)Cn1nc(C)c2c(C)n(-c3ccccc3)nc2c1=O,inactive: 63%
3,CN(C)C1(CNC(=O)COc2ccc([N+](=O)[O-])cc2)CCCCC1,inactive: 102%
4,O=C(CN1C(=O)c2ccccc2C1=O)Nc1cccnc1,inactive: 76%
5,CCN(CC)S(=O)(=O)c1ccc2c(c1)N(CC(=O)N1CCN(c3cccc(Cl)c3)CC1)C(=O)CO2,inactive: 74%
6,CCC1CN(C(=O)N2CCC(C(=O)NCCc3cc(OC)ccc3OC)CC2)c2ccccc2O1 (configuration not stated),inactive: 78%
7,O=C(NN=C1CCCCC1)c1n[nH]c2c1CCC2,inactive: 97%
8,CCn1c(CN2CCOCC2)nc2cc(NC(=O)c3ccccc3[N+](=O)[O-])ccc21,inactive: 86%
9,O=C(Cn1nnc(-c2ccccc2NC(=O)c2cnccn2)n1)Nc1ccc2c(c1)OCCO2,inactive: 105%
10,CCN(C(=O)Cn1c(=O)n(CCCS(=O)(=O)C2CCCCC2)c(=O)c2ccccc21)c1cccc(C)c1,inactive: 87%
11,COc1cccc(-n2cc(C(=O)Nc3cccc(C(F)(F)F)c3)c3ccccc3c2=O)c1,inactive: 61%
12,COc1ccccc1N1CCN(C(=O)Cn2ncc3ccsc3c2=O)CC1,inactive: 114%
13,CC(C)Oc1ccc(CNC(=O)c2ccc(CS(=O)c3cccc(Cl)c3)o2)cc1 (configuration not stated),active: 52%
14,Cc1ccc(NC(=O)N2CCc3cc(S(=O)(=O)N4CCC(C)CC4)ccc32)cc1,inactive: 96%
15,O=C(Nc1ccccc1Cl)NC1(C(=O)N2CCCCC2)CCCCC1,inactive: 84%
16,CCOc1ccc(-c2cc(CCCC(=O)NCCc3ccc(Cl)cc3)no2)cc1,inactive: 74%
17,O=C(NCCc1csc(-c2ccc(C(F)(F)F)cc2)n1)c1ccc(F)c(F)c1,inactive: 82%
18,Cc1cccc(NC(=O)CSc2nc(-c3cccs3)cc(C(F)(F)F)c2C#N)c1C,inactive: 68%
19,COC(=O)c1c(-c2cccs2)csc1NC(=O)c1cccc(Cl)c1,inactive: 93%

row,SMILES,survival
1,COC(=O)c1c(-c2cccs2)csc1NC(=O)c1ccc(Br)cc1,inactive: 51%
2,CC(O)CNCc1ccc2c(c1)OCO2 (configuration not stated),inactive: 101%
3,CCN(c1cccc(C)c1)S(=O)(=O)c1ccc(-n2cccn2)cc1,inactive: 73%
4,CCc1ccc(NC(=O)CCS(=O)(=O)c2cc3c(cc2Cl)NC(=O)CO3)cc1,inactive: 91%
5,CC1=C(C(=O)Nc2ccccc2)C(c2ccccc2C)n2nc(SCC(=O)c3ccc(C)cc3)nc2N1 (configuration not stated),inactive: 74%
6,CCCCC(c1nnnn1CCc1ccccc1)N1CCN(C2CCCC2)CC1 (configuration not stated),inactive: 87%
7,COCCCNc1nc2c(S(=O)(=O)c3ccccc3)nnn2c2ccc(Cl)cc12,inactive: 95%
8,O=C(NCc1cccs1)c1nn(-c2ccccc2Cl)nc1CO,inactive: 105%
9,Cc1[nH]n(-c2ccccc2)c(=O)c1C(c1cc(Cl)ccc1O)c1c(C)[nH]n(-c2ccccc2)c1=O,inactive: 49%
10,CCOC(=O)c1ccccc1NC(=O)N1CCN(Cc2cc(=O)n3nc(-c4ccccc4)sc3n2)CC1,inactive: 70%
11,N#Cc1ccc(S(=O)(=O)N2CCC(Oc3cccc(C(F)(F)F)c3)CC2)cc1,inactive: 67%
12,COc1ccc(CNC(=O)C(=O)Nc2c3c(nn2-c2ccccc2)CSC3)cc1,inactive: 86%
13,COc1cc(OC)c(OC)cc1CN1CCc2nc(Nc3ccc4c(c3)OCCO4)ncc2C1,inactive: 80%
14,CCCNC(=O)C1=CC(c2ccc3c(c2)OCO3)=NS(=O)(=O)N1C,inactive: 83%
15,CCN(c1ccccc1)S(=O)(=O)c1cc(Br)cc2c1N(C(=O)C1CC1)CC2,inactive: 60%
16,Cc1ccc(-c2cc(C(=O)NCc3cnn(C)c3C)c3ccccc3n2)cc1C,active: 49%
17,Cc1ccc(C(=O)N2CCc3cc(CNC(=O)CSc4ccccc4)ccc32)cc1,inactive: 81%
18,Cc1cccc(N(C(=O)c2csnn2)C(C(=O)NC2CCCCC2)c2ccco2)c1 (configuration not stated),inactive: 87%
19,Cc1cccc(-c2c3c(=O)n(C)c(=O)n(C)c3c3c(C)nc4ccccc4n23)c1,inactive: 129%
